Results are given in words; binding and its absence hold for the method and conditions named. For some assays here: Binding seen in cells or lysates may run through a third protein. Some entries that bind do so weakly or less than the wild type. For some assays here: Sequences can lack the tags named with a protein.

Binding data for two molecules are collected here from paper PMC6286407.

Assay [1] deals with CC2D1B (residues 317–558) (human) (UniProt Q5T0F9). Nature of the assay: sucrose gradient centrifugation; sucrose step gradient 60-5% in HBS (0.01 M Hepes pH 7.4, 0.15 M NaCl), SW55 rotor 40,000 rpm 6 h 4°C; fractions on SDS-PAGE, Coomassie; top fractions monomers, bottom fraction polymers; with or without TEV cleavage and CC2D1B (residues 317-558); both purified.
In the next assay the target is T1, CHMP4B-L-GFP (UniProt Q9H444).
T1 sequence: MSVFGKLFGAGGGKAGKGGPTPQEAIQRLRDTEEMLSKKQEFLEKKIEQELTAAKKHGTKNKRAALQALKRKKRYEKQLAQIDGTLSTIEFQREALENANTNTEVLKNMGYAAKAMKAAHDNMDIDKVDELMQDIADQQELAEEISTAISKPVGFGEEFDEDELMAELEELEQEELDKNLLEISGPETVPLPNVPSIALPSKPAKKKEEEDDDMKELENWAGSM
Put plainly: co-IP; GFP-Trap magnetic microparticles, 2 h, clarified lysates of HCT116 cells stably expressing CHMP4B-L-GFP or CHMP2A-L-GFP; same lysis buffer as the GST pull-downs; western blot for endogenous CC2D1B.

B1: CC2D1B (residues 317–558) (domain or fragment, UniProt Q5T0F9 317-558)
chain: GAVLEALEKGQPVDLSAMPPAPEDLKPQQASQAPTAPSVIPPAVERVQPVMAPDVPATPVAPTESQTVLDALQQRLNKYREAGIQARSGGDERKARMHERIAKQYQDAIRAHRAGRKVNFAELPVPPGFPPIPGLESTMGVEEDAVAATLAAAEKLASAEDSAPADKDEDEPPGHLQGEPPAQAPVAKKPARPTVPSSQRLPEPRASSSKESPSPSVREQLALLEARKLQYQRAALQAKRSQ
On to B1, for which, in assay [1], the binding result is “no binding”.

B2: endogenous CC2D1B (protein, UniProt Q5T0F9 1-858)
chain: MMPGPRPRKGPQARGQGVAAAKQMGLFMEFGPEDMLLGMDEAEDDEDLEAELLALTGEAQTTGKKPAPKGQAPLPMAHIEKLAADCMRDVEEEEEEEGLEEDAELLTELQEVLGVDEETEPLDGDEVADPGGSEEENGLEDTEPPVQTAVLTASAPAAQAGASQGLHALLEERIHNYREAAASAKEAGEAAKARRCERGLKTLESQLASVRRGRKINEDEIPPPVALGKRPLAPQEPANRSPETDPPAPPALESDNPSQPETSLPGISAQPVSDLDPDPRALLSSRQREYKVAALSAKRAGELDRARELMRIGKRFGAVLEALEKGQPVDLSAMPPAPEDLKPQQASQAPTAPSVIPPAVERVQPVMAPDVPATPVAPTESQTVLDALQQRLNKYREAGIQARSGGDERKARMHERIAKQYQDAIRAHRAGRKVNFAELPVPPGFPPIPGLESTMGVEEDAVAATLAAAEKLASAEDSAPADKDEDEPPGHLQGEPPAQAPVAKKPARPTVPSSQRLPEPRASSSKESPSPSVREQLALLEARKLQYQRAALQAKRSQDLEQAKAYLRVAKWLEAQIIQARSGRPVDLSKVPSPLTDEEGDFILIHHEDLRLSQKAEEVYAQLQKMLLEQQEKCLLFSKQFMHQGNVAETTRFEKLAQDRKKQLEILQLAQAQGLDPPTHHFELKTFQTVRIFSELNSTEMHLIIVRGMNLPAPPGVTPDDLDAFVRFEFHYPNSDQAQKSKTAVVKNTNSPEFDQLFKLNINRNHRGFKRVIQSKGIKFEIFHKGSFFRSDKLVGTAHLKLERLENECEIREIVEVLDGRKPTGGKLEVKVRLREPLSGQDVQMVTENWLVLEPRGL
Turning to B2, the binding result with CHMP4B-L-GFP is listed as “binds”.
